# Experimental data as given in PubChem BioAssay AID360 (National Center for Advancing Translational Sciences (NCATS), 2006).
# In all, about 48,000 compounds went through this assay and about 550 (1.1%) were called active. Another 4% or so got no clear call; they are omitted. Rule as the data show it: active = potency below about 15 µM; inconclusive = mostly about 16 µM to 33 µM; inactive = weaker than that. The list shows a part of the results.
# Target: Lysosomal acid glucosylceramidase (Homo sapiens) (UniProt P04062)
# UniProt P04062, sequence (P04062 whole entry, looked up): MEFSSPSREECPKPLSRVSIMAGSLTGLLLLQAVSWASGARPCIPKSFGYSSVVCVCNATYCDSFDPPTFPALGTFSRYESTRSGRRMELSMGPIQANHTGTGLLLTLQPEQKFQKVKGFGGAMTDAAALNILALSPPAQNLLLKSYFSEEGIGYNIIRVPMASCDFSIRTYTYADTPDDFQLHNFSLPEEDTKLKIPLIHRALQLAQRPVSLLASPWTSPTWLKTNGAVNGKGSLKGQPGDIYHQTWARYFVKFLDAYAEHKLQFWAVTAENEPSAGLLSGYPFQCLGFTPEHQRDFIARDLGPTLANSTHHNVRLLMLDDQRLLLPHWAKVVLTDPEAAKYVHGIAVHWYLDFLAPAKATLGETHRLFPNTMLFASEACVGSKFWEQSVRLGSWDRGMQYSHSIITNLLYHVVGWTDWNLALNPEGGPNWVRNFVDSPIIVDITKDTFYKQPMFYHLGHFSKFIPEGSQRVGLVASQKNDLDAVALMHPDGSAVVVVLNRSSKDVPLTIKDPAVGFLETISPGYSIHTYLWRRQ
# Assay: Glucocerebrosidase;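 also: the screen sought inhibitors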
# Details: purified enzyme, resorufin glucoside fluorescence (screen aimed at inhibitors), 20 min; series mostly up to 77 µM
# Outline: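 Wild-type enzyme at 0.2 nM final in 50mM citric acid/KH2PO4, 10mM sodium taurocholate, 0.01% tween-20, pH 5.9, with resorufin beta-D-glucopyranoside at 30 uM final. Compounds titrated, 20 min at RT, red fluorescence read; AC50 from titration.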
# Potency is read from the fitted curve at half-maximal effect.
row,SMILES,Potency
1,CN(c1cccc(NS(=O)(=O)c2cccs2)c1)S(C)(=O)=O,inactive: > 76.9 µM
2,Cc1occc1-c1nnc(SCC(=O)N2CC(=O)Nc3ccccc32)n1CC(C)C,inactive: > 76.9 µM
3,CNC(=O)Nc1cccc(C(F)(F)F)c1,inactive: > 76.9 µM
4,COc1c(Br)cc(Br)cc1/C=N/n1c(C)nnc1C,inactive: > 76.9 µM
5,Cc1ccc(S(=O)(=O)NCCCCCC(=O)Nc2nccs2)cc1,inactive: > 76.9 µM
6,COc1cc2[nH]c(=O)n(Cc3ccc(C(=O)NCC4CCCO4)cc3)c(=O)c2cc1OC (configuration not stated),inactive: > 76.9 µM
7,Cc1ccc(C(=O)CCC2CCCC2=O)cc1 (configuration not stated),inactive: > 76.9 µM
8,Cc1ccc(CN(C)C(=O)C2CCCN2C(=O)c2cccs2)o1 (configuration not stated),inactive: > 76.9 µM
9,Cc1ccnc(SCCn2c(N3CC(C)CC(C)C3)nc3c2c(=O)n(C)c(=O)n3C)n1 (configuration not stated),inactive: > 76.9 µM
10,Cc1cccc2cc(COC(=O)c3ccco3)c(=O)[nH]c12,inactive: > 76.9 µM
11,C/C(N)=C(/C#N)C(=O)CSc1nnc(-c2ccc(OC(F)F)cc2)o1,inactive: > 76.9 µM
12,O=C(NCC1CCCO1)c1cnn2c1NC(c1ccccc1)CC2C(F)(F)F (configuration not stated),inactive: > 76.9 µM
13,NC(=O)Cn1c(=O)n(CCCC(=O)NC2CCN(Cc3ccccc3)CC2)c(=O)c2ccccc21,inactive: > 76.9 µM
14,O=C1c2ccccc2CC1Sc1nnc(-c2ccncc2)o1 (configuration not stated),inactive: > 76.9 µM
15,COc1ccc(NC(=O)c2coc3ccccc23)cc1OC,inactive: > 76.9 µM
16,Cc1ccc2cc(C(c3nnnn3C(C)(C)C)N3CCCCCC3)c(=O)[nH]c2c1 (configuration not stated),inactive: > 76.9 µM
17,CCN1C(=O)CC(N2CCC(Cc3ccccc3)CC2)C1=O (configuration not stated),inactive: > 76.9 µM
18,CSc1nsc(SCC(=O)Nc2cccc(C(C)=O)c2)n1,inactive: > 76.9 µM
19,CC(C)n1c(SCc2cc(=O)[nH]c3ccccc23)nc2c1c(=O)n(C)c(=O)n2C,inactive: > 76.9 µM

row,SMILES,Potency
1,COc1ccc(-n2nc3c(c2NC(=O)c2cc4ccccc4oc2=O)CS(=O)(=O)C3)cc1,inactive: > 76.9 µM
2,O=c1cc(CSc2nnc(-c3ccco3)o2)c2ccccc2[nH]1,inactive: > 76.9 µM
3,COCCOC(=O)CC1=NC(=O)CS1,inactive: > 76.9 µM
4,O=C(CSc1nnc(Cc2ccccc2)o1)NC1CCCCC1,inactive: > 76.9 µM
5,CCOC(=O)CNC(=O)CSc1nnc(Cn2cnc3ccccc32)n1C,inactive: > 76.9 µM
6,Cc1nn(-c2ccccc2)c2[nH]c(=O)c(CNCC3CCCO3)cc12 (configuration not stated),inactive: > 76.9 µM
7,CC1CN(S(=O)(=O)c2ccc(NC(=O)CCCN3C(=O)c4ccccc4C3=O)cc2)CC(C)O1 (configuration not stated),inactive: > 76.9 µM
8,Fc1ccc(-c2nnc(CN3CCC(c4nc5ccccc5s4)CC3)o2)cc1,inactive: > 76.9 µM
9,O=C(Cc1cccs1)N1CCC(c2nc3c(nnn3Cc3ccccc3)c(=O)[nH]2)CC1,inactive: > 76.9 µM
10,Clc1ccccc1-c1nnn(Cc2ccc(-c3nn[nH]n3)cc2)n1,inactive: > 76.9 µM
11,COCCCNC(=O)CCc1nc2cccnc2n1Cc1ccccc1,inactive: > 76.9 µM
12,O=C(CSc1ccccn1)Nc1ccc(Br)cn1,inactive: > 76.9 µM
13,CCOC(=O)CCCCC(=O)c1[nH]c(=O)[nH]c1CSc1nc(C)cc(=O)[nH]1,inactive: > 76.9 µM
14,COCCNS(=O)(=O)c1cc(OC)c(Cl)cc1Cl,inactive: > 76.9 µM
15,CCOC(=O)c1ccc(NC(=O)c2ccc(NS(C)(=O)=O)cc2)cc1,inactive: > 76.9 µM
16,COc1cc(S(=O)(=O)N2CCOCC2)ccc1F,inactive: > 76.9 µM
17,Cc1c(CN(C)C(=O)CSc2nc(-c3ccco3)cc(C(F)(F)F)n2)cnn1C,inactive: > 76.9 µM
18,Cc1nnc(SC(C)C(=O)Nc2ccc(Cl)cn2)n1Cc1ccccc1 (configuration not stated),inactive: > 76.9 µM
19,CN(c1ccccc1C(=O)NCC1CCCO1)S(C)(=O)=O (configuration not stated),inactive: > 76.9 µM

row,SMILES,Potency
1,CC1(C)Cc2nc(N)c(=O)sc2C1,inactive: > 76.9 µM
2,CCCOC1(NC(=O)c2ccccc2)C(C)=CC(=O)C=C1C,inactive: > 76.9 µM
3,COCCN(CC(=O)NCC1CCCO1)C(=O)CCC(=O)Nc1cc(C)on1 (configuration not stated),inactive: > 76.9 µM
4,O=C(O)c1[nH]nc2c1COc1ccccc1-2,inactive: > 76.9 µM
5,COCCNC(=O)CN1CCC(NC(=O)Nc2ccc(C(F)(F)F)cc2)CC1,inactive: > 76.9 µM
6,CCCCC(=NCCO)C1=C(O)C(C(=O)OC)C(C)(C)CC1=O (configuration not stated),inactive: > 76.9 µM
7,CCOC(=O)c1cccc(NC(=O)CSc2nnc(COc3ccc(Cl)cc3)o2)c1,inactive: > 76.9 µM
8,O=C(NCCN1CCOCC1)C1CC(=O)N(c2ccc(F)c(Cl)c2)C1 (configuration not stated),inactive: > 15.4 µM
9,O=C(CSc1nc(-c2ccccc2)cc(=O)[nH]1)NCc1ccc2c(c1)OCO2,inactive: > 76.9 µM
10,O=C(CS(=O)(=O)c1cn(Cc2cccc(F)c2)c2ccccc12)N1CCOCC1,inactive: > 76.9 µM
11,COc1cccc(OCc2nnc(SCC(=O)NCc3ccco3)n2CCc2ccccc2)c1,inactive
12,Cc1ccc(C(C(=O)NC2CCCCC2)N2CCCC2)cc1 (configuration not stated),inactive: > 76.9 µM
13,C=CCn1c(SC(C)C(=O)NC2(C#N)CCCCC2)nnc1-c1ccc(OC)cc1 (configuration not stated),inactive: > 76.9 µM
14,COc1cccc(C2NC(CC(C)C)(C(=O)O)C3C(=O)N(Cc4ccccc4)C(=O)C23)c1O (configuration not stated),inactive: > 76.9 µM
15,CCCC(=O)Nc1c2c(nn1-c1ccc(OC)cc1)CS(=O)C2 (configuration not stated),inactive: > 76.9 µM
16,CCOC(=O)c1cnn(CCOC(=O)C(C)(C)C)c1NC(=O)C(C)(C)C,inactive: > 76.9 µM
17,CCC(=O)Nc1ccc(NC(=O)CSc2nnnn2C(C)C)cc1,inactive: > 76.9 µM
18,CCCc1nc2ccccc2c(=O)n1/N=C/c1ccc(O)c(O)c1,inactive: > 76.9 µM
19,CC(C)CCNc1nc(N2CCCC2)c2c(c1C#N)CCN(C)C2,active: 12.7 µM
